# The list shows a part of the results.
# Columns and labels:
# Test in all cases: glycan array binding signal (z-score within array); higher = stronger binding
# Settings in all cases: glycan notation: IUPAC condensed, linker removed
# [1] = molecular target: Fuc(a1-2)Gal
# Method in brief: (§1)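 The binding signal is a Z-score computed within each array and averaged over linkers. Arrays of the same protein sequence at different concentrations or buffers were also averaged together. Data originate from 3228 arrays in the Consortium for Functional Glycomics database, kept only where the protein sequence was available.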
# [2] = molecular target: Fuc(a1-2)Gal(b1-3)GalNAc
# Method in brief: as §1
# [3] = molecular target: Fuc(a1-2)Gal(b1-3)GalNAc(b1-3)Gal
# Method in brief: as §1
# [4] = molecular target: Fuc(a1-2)Gal(b1-3)GalNAc(b1-3)Gal(a1-4)Gal(b1-4)Glc
# Method in brief: as §1
# [5] = molecular target: Fuc(a1-2)Gal(b1-3)GalNAc(b1-4)[Neu5Ac(a2-3)]Gal(b1-4)Glc
# Method in brief: as §1
# [6] = molecular target: Fuc(a1-2)Gal(b1-3)GlcNAc
# Method in brief: as §1
# [7] = molecular target: Fuc(a1-2)Gal(b1-3)GlcNAc(b1-2)Man(a1-3)[Fuc(a1-2)Gal(b1-3)GlcNAc(b1-2)Man(a1-6)]Man(b1-4)GlcNAc(b1-4)GlcNAc
# Method in brief: as §1
# [8] = molecular target: Fuc(a1-2)Gal(b1-3)GlcNAc(b1-3)Gal(b1-4)Glc
# Method in brief: as §1
# [9] = molecular target: Fuc(a1-2)Gal(b1-3)GlcNAc(b1-3)[Gal(b1-4)[Fuc(a1-3)]GlcNAc(b1-6)]Gal(b1-4)Glc
# Method in brief: as §1
# [10] = molecular target: Fuc(a1-2)Gal(b1-3)[Fuc(a1-4)]GlcNAc
# Method in brief: as §1
# [11] = molecular target: Fuc(a1-2)Gal(b1-3)[Fuc(a1-4)]GlcNAc(b1-2)Man(a1-3)[Fuc(a1-2)Gal(b1-3)[Fuc(a1-4)]GlcNAc(b1-2)Man(a1-6)]Man(b1-4)GlcNAc(b1-4)GlcNAc
# Method in brief: as §1
# [12] = molecular target: Fuc(a1-2)Gal(b1-4)Glc
# Method in brief: as §1
# [13] = molecular target: Fuc(a1-2)Gal(b1-4)Glc6S
# Method in brief: as §1
# [14] = molecular target: Fuc(a1-2)Gal(b1-4)GlcNAc
# Method in brief: as §1
# [15] = molecular target: Fuc(a1-2)Gal(b1-4)GlcNAc(b1-2)Man(a1-3)[Fuc(a1-2)Gal(b1-4)GlcNAc(b1-2)Man(a1-6)]Man(b1-4)GlcNAc(b1-4)GlcNAc
# Method in brief: as §1
# [16] = molecular target: Fuc(a1-2)Gal(b1-4)GlcNAc(b1-3)Gal(b1-4)GlcNAc
# Method in brief: as §1
# [17] = molecular target: Fuc(a1-2)Gal(b1-4)GlcNAc(b1-3)Gal(b1-4)GlcNAc(b1-3)Gal(b1-4)GlcNAc
# Method in brief: as §1
# [18] = molecular target: Fuc(a1-2)Gal(b1-4)GlcNAc6S
# Method in brief: as §1
# [19] = molecular target: Fuc(a1-2)Gal(b1-4)[Fuc(a1-3)]GlcNAc
# Method in brief: as §1
# [20] = molecular target: Fuc(a1-2)Gal(b1-4)[Fuc(a1-3)]GlcNAc(b1-2)Man(a1-3)[Fuc(a1-2)Gal(b1-4)[Fuc(a1-3)]GlcNAc(b1-2)Man(a1-6)]Man(b1-4)GlcNAc(b1-4)GlcNAc
# Method in brief: as §1
# [21] = molecular target: Fuc(a1-2)Gal(b1-4)[Fuc(a1-3)]GlcNAc(b1-3)Gal(b1-4)[Fuc(a1-3)]GlcNAc
# Method in brief: as §1
# [22] = molecular target: Fuc(a1-2)Gal(b1-4)[Fuc(a1-3)]GlcNAc(b1-3)Gal(b1-4)[Fuc(a1-3)]GlcNAc(b1-3)Gal(b1-4)[Fuc(a1-3)]GlcNAc
# Method in brief: as §1
# [23] = molecular target: Fuc(a1-2)Gal6S(b1-4)Glc
# Method in brief: as §1
# [24] = molecular target: Fuc(a1-2)Gal6S(b1-4)Glc6S
# Method in brief: as §1
# [25] = molecular target: Fuc(a1-2)Gal6S(b1-4)GlcNAc
# Method in brief: as §1
# [26] = molecular target: Fuc(a1-2)[Gal(a1-3)]Gal
# Method in brief: as §1
# [27] = molecular target: Fuc(a1-2)[Gal(a1-3)]Gal(b1-3)GlcNAc
# Method in brief: as §1
# [28] = molecular target: Fuc(a1-2)[Gal(a1-3)]Gal(b1-3)GlcNAc(b1-2)Man(a1-3)[Fuc(a1-2)[Gal(a1-3)]Gal(b1-3)GlcNAc(b1-2)Man(a1-6)]Man(b1-4)GlcNAc(b1-4)GlcNAc
# Method in brief: as §1
# [29] = molecular target: Fuc(a1-2)[Gal(a1-3)]Gal(b1-4)Glc
# Method in brief: as §1
# [30] = molecular target: Fuc(a1-2)[Gal(a1-3)]Gal(b1-4)GlcNAc
# Method in brief: as §1
# [31] = molecular target: Fuc(a1-2)[Gal(a1-3)]Gal(b1-4)GlcNAc(b1-2)Man(a1-3)[Fuc(a1-2)[Gal(a1-3)]Gal(b1-4)GlcNAc(b1-2)Man(a1-6)]Man(b1-4)GlcNAc(b1-4)GlcNAc
# Method in brief: as §1
# [32] = molecular target: Fuc(a1-2)[Gal(a1-3)]Gal(b1-4)[Fuc(a1-3)]GlcNAc
# Method in brief: as §1
# [33] = molecular target: Fuc(a1-2)[Gal(a1-4)]Gal(b1-4)GlcNAc
# Method in brief: as §1
# [34] = molecular target: Fuc(a1-2)[GalNAc(a1-3)]Gal
# Method in brief: as §1
# [35] = molecular target: Fuc(a1-2)[GalNAc(a1-3)]Gal(b1-3)GlcNAc
# Method in brief: as §1
# [36] = molecular target: Fuc(a1-2)[GalNAc(a1-3)]Gal(b1-3)GlcNAc(b1-2)Man(a1-3)[Fuc(a1-2)[GalNAc(a1-3)]Gal(b1-3)GlcNAc(b1-2)Man(a1-6)]Man(b1-4)GlcNAc(b1-4)GlcNAc
# Method in brief: as §1
# [37] = molecular target: Fuc(a1-2)[GalNAc(a1-3)]Gal(b1-4)Glc
# Method in brief: as §1
# [38] = molecular target: Fuc(a1-2)[GalNAc(a1-3)]Gal(b1-4)GlcNAc
# Method in brief: as §1
# [39] = molecular target: Fuc(a1-2)[GalNAc(a1-3)]Gal(b1-4)GlcNAc(b1-2)Man(a1-3)[GalNAc(a1-3)[Fuc(a1-2)]Gal(b1-4)GlcNAc(b1-2)Man(a1-6)]Man(b1-4)GlcNAc(b1-4)GlcNAc
# Method in brief: as §1
# [40] = molecular target: Fuc(a1-2)[GalNAc(a1-3)]Gal(b1-4)GlcNAc(b1-3)Gal(b1-4)GlcNAc
# Method in brief: as §1
# [41] = molecular target: Fuc(a1-2)[GalNAc(a1-3)]Gal(b1-4)GlcNAc(b1-3)Gal(b1-4)GlcNAc(b1-3)Gal(b1-4)GlcNAc
# Method in brief: as §1
# [42] = molecular target: Fuc(a1-2)[GalNAc(a1-3)]Gal(b1-4)[Fuc(a1-3)]GlcNAc
# Method in brief: as §1
# [43] = molecular target: Fuc(a1-2)[GalNAc(a1-4)]Gal(b1-4)GlcNAc
# Method in brief: as §1
# [44] = molecular target: Fuc(a1-2)[GalNAc(b1-3)]Gal
# Method in brief: as §1
# [45] = molecular target: Fuc(a1-3)GlcNAc
# Method in brief: as §1
binder,measurement,setting,value
"Spy0252 (Streptococcus pyogenes), Q9A1I9_STRP1 (protein) MNMKKLASLAMLGASVLGLAACGGKSQKEAGASKSDTAKTEITWWAFPVFTQEKAEDGVGTYEKKLIAAFEKANPEIKVKLETIDFTSGPEKITTAIEAGTAPDVLFDAPGRIIQYGKNGKLADLNDLFTEEFTKDVNNDKLIQASKAGDTAYMYPISSAPFYMALNKKMLKDAGVLDLVKEGWTTDDFEKVLKALKDKGYNPGSFFANGQGGDQGPRAFFANLYSSHITDDKVTKYTTDDANSIKAMTKISNWIKDGLMMNGSQYDGSADIQNFANGQTSFTILWAPAQPGIQAKLLEASKVDYLEIPFPSDDGKPELEYLVNGFAVFNNKDEQKVAASKTFIQFIADDKEWGPKNVVRTGAFPVRTSYGDLYKDKRMEKIAEWTKFYSPYYNTIDGFAEMRTLWFPMVQAVSNGDEKPEDALKAFTEKANKTIKKTQ",glycan array binding signal (z-score),[1],-0.143
same,glycan array binding signal (z-score),[2],-0.239
same,glycan array binding signal (z-score),[3],-0.258
same,glycan array binding signal (z-score),[4],0.314
same,glycan array binding signal (z-score),[5],-0.268
same,glycan array binding signal (z-score),[6],-0.264
same,glycan array binding signal (z-score),[7],0.132
same,glycan array binding signal (z-score),[8],-0.256
same,glycan array binding signal (z-score),[9],-0.267
same,glycan array binding signal (z-score),[10],-0.273
same,glycan array binding signal (z-score),[11],-0.204
same,glycan array binding signal (z-score),[12],-0.042
same,glycan array binding signal (z-score),[13],0.018
same,glycan array binding signal (z-score),[14],-0.223
same,glycan array binding signal (z-score),[15],-0.113
same,glycan array binding signal (z-score),[16],-0.27
same,glycan array binding signal (z-score),[17],-0.218
same,glycan array binding signal (z-score),[18],-0.262
same,glycan array binding signal (z-score),[19],-0.247
same,glycan array binding signal (z-score),[20],0.041
same,glycan array binding signal (z-score),[21],-0.231
same,glycan array binding signal (z-score),[22],-0.25
same,glycan array binding signal (z-score),[23],-0.255
same,glycan array binding signal (z-score),[24],-0.172
same,glycan array binding signal (z-score),[25],-0.264
same,glycan array binding signal (z-score),[26],-0.252
same,glycan array binding signal (z-score),[27],-0.253
same,glycan array binding signal (z-score),[28],-0.07
same,glycan array binding signal (z-score),[29],-0.272
same,glycan array binding signal (z-score),[30],-0.271
same,glycan array binding signal (z-score),[31],-0.278
same,glycan array binding signal (z-score),[32],-0.251
same,glycan array binding signal (z-score),[33],-0.149
same,glycan array binding signal (z-score),[34],-0.235
same,glycan array binding signal (z-score),[35],-0.255
same,glycan array binding signal (z-score),[36],-0.176
same,glycan array binding signal (z-score),[37],-0.241
same,glycan array binding signal (z-score),[38],-0.145
same,glycan array binding signal (z-score),[39],-0.225
same,glycan array binding signal (z-score),[40],-0.127
same,glycan array binding signal (z-score),[41],0.837
same,glycan array binding signal (z-score),[42],-0.212
same,glycan array binding signal (z-score),[43],-0.245
same,glycan array binding signal (z-score),[44],-0.061
same,glycan array binding signal (z-score),[45],-0.259

# Reference: the supplement of paper PMC8728848
